# Reference: the supplement of paper PMC7826260
# Some of the results follow. The data describe in vitro nicking of single-stranded DNA by Rep domains (3 µM enzyme, 1 h, 37 °C); shown is the middle of each 90-letter strand. Uncut reads are compared with the no-enzyme pool on a log2 scale; more negative means more cut, near 0 not cut, and no call is made. Shares of all reads are compared, so uncut sequences can rise above 0 when many others are cut.
# Legend:
# Assay in all cases: uncleaved DNA left, log2 of reads against the no-enzyme library (log2 ratio); higher = less cleavage (more negative = more Rep cleavage of the k-mer); sequences stand for … in CTCGTCCG…ACCGGAGA
# [1] = tested on: T1, Rep nickase domain of Muscovy duck circovirus
# T1 sequence (residues 1-111, tag not shown): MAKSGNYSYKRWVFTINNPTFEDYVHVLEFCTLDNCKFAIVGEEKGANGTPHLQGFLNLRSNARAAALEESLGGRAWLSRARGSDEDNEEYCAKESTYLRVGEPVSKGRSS
# Experimental: (§1)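 A pool of 90-nt single-stranded DNAs with seven random bases just before the constant AC of the nick site (name = the seven bases) was cut by 3 µM recombinant His6-SUMO-tagged Rep nickase domain (300 nM DNA, 50 mM HEPES pH 8.0, 50 mM NaCl, 1 mM MnCl2, 1 h, 37 °C, three replicates). Uncut DNA was amplified and sequenced.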
# [2] = tested on: T2, Rep nickase domain of banana bunchy top virus
# T2 sequence (residues 1-94, tag not shown): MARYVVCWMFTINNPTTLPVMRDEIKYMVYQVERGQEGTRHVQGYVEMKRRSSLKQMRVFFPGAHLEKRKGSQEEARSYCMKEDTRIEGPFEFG
# Experimental: as §1
# [3] = tested on: T3, Rep nickase domain of cabbage leaf curl virus
# T3 sequence (residues 1-116, tag not shown): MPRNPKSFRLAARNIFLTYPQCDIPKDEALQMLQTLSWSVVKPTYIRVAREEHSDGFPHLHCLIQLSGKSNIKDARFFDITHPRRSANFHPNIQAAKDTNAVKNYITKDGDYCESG
# Experimental: as §1
# [4] = tested on: T4, Rep nickase domain of chickpea chlorotic dwarf virus
# T4 sequence (residues 1-124, tag not shown): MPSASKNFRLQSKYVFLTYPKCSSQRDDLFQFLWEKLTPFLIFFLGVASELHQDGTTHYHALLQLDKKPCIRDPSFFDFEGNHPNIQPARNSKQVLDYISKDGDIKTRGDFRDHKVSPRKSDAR
# Experimental: as §1
# [5] = tested on: T5, Rep nickase domain of faba bean necrotic yellows virus
# T5 sequence (residues 1-98, tag not shown): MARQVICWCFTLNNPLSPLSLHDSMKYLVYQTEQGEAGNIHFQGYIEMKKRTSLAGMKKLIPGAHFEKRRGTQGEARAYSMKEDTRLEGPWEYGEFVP
# Experimental: as §1
# [6] = tested on: T6, Rep nickase domain of maize striate mosaic virus
# T6 sequence (residues 1-117, tag not shown): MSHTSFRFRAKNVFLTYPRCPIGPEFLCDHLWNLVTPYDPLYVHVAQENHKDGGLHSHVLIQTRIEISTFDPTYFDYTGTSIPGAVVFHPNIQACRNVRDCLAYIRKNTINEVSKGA
# Experimental: as §1
# [7] = tested on: T7, Rep nickase domain of porcine circovirus 2
# T7 sequence (residues 2-116, tag not shown): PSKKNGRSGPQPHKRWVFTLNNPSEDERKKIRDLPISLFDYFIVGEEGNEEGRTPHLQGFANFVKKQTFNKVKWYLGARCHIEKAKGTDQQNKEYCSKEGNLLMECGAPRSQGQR
# Experimental: as §1
# [8] = tested on: T8, Rep nickase domain of tomato golden mosaic virus
# T8 sequence (residues 1-124, tag not shown): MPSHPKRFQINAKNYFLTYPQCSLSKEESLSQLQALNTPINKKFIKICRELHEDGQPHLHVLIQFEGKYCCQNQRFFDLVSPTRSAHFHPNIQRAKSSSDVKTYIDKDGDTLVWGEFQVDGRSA
# Experimental: as §1
# [9] = tested on: T9, Rep nickase domain of tomato yellow leaf curl virus
# T9 sequence (residues 1-136, tag not shown): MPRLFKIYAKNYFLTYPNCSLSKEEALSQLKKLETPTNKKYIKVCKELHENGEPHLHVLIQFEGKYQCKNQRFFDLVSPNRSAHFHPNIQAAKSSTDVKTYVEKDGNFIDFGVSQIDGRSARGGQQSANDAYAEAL
# Experimental: as §1
# [10] = tested on: T10, Rep nickase domain of wheat dwarf virus
# T10 sequence (residues 1-137, tag not shown): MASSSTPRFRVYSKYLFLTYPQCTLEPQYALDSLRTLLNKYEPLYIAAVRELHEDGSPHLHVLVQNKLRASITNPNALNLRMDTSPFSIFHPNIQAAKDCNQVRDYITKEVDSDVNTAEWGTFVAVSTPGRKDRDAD
# Experimental: as §1
Sequence,uncleaved DNA left (log2) [1],uncleaved DNA left (log2) [2],uncleaved DNA left (log2) [3],uncleaved DNA left (log2) [4],uncleaved DNA left (log2) [5],uncleaved DNA left (log2) [6],uncleaved DNA left (log2) [7],uncleaved DNA left (log2) [8],uncleaved DNA left (log2) [9],uncleaved DNA left (log2) [10]
GACCCAC,-0.0712,-0.0196,0.273,0.914,-0.104,0.871,-0.0673,-0.0125,0.0191,0.127
TGACTAA,-0.0361,-0.0546,0.0393,0.314,-0.156,0.613,-0.0443,-0.191,-0.142,-0.0232
CGCATGC,0.00789,0.0995,-0.397,-0.483,0.0246,-0.893,0.111,-0.00806,0.0441,0.0382
AGTCCAT,-0.0665,-0.049,0.207,0.242,-0.143,0.237,-2.17,-0.0601,0.0379,0.0628
ATTTGAG,0.0216,0.016,-0.625,0.369,0.105,-0.817,0.196,-0.0368,0.116,-0.0327
TGCGTAG,0.0632,0.0467,-0.263,-0.285,0.0771,-0.774,0.0803,0.132,-0.0263,-0.0518
AGAAGGA,0.125,0.132,0.279,0.673,0.141,0.112,0.206,0.153,0.00727,0.141
GAGCATG,0.0905,0.142,-0.0381,0.713,-0.0157,1.32,0.154,0.0364,-0.0278,0.136
GTCTTTC,-0.0112,0.0724,0.337,0.897,-0.111,1.62,0.102,0.0281,0.0492,0.0223
AGTTTAC,-0.0486,-0.0377,0.119,0.248,0.0468,0.329,-0.0758,0.0553,-0.000999,-0.0236
CATCGTT,-0.0294,-0.155,-0.564,-2.42,-0.0663,-0.93,-2.26,-0.122,-0.137,-0.142
ACTCTTG,-0.0102,-0.211,-0.735,-1.37,-0.113,-1.13,-0.0327,-0.054,-0.129,-0.0544
ACGTTCG,-0.0536,0.018,-0.614,-0.0865,0.119,-0.841,0.119,-0.0205,0.0841,-0.0389
AATCTTA,-0.132,0.0428,-0.346,-1.87,0.0335,-0.746,-0.297,-0.0588,-0.0984,-0.0145
CCGGTGG,0.0776,-0.00502,0.418,0.625,0.189,0.998,0.198,0.0632,-0.000417,0.00932
GCAAACA,0.104,0.19,0.11,-1.24,-0.00657,-0.021,0.156,0.124,0.0455,0.0634
GTTTAGG,-0.0146,0.032,0.523,1.3,-0.0186,1.76,0.202,0.175,-0.032,0.114
TCCATTC,-0.209,-0.0927,-0.284,-0.496,-0.206,-1.31,-0.0935,-0.127,0.0779,-0.138
AACGGTA,0.0407,-0.0453,0.151,0.426,0.0326,0.993,-0.052,-0.0295,-0.101,-0.0528
GCGTAAC,-0.09,-0.098,-0.208,-0.216,-0.165,0.101,-0.0454,0.00796,-0.119,0.00519

Sequence,uncleaved DNA left (log2) [1],uncleaved DNA left (log2) [2],uncleaved DNA left (log2) [3],uncleaved DNA left (log2) [4],uncleaved DNA left (log2) [5],uncleaved DNA left (log2) [6],uncleaved DNA left (log2) [7],uncleaved DNA left (log2) [8],uncleaved DNA left (log2) [9],uncleaved DNA left (log2) [10]
GTGCAAA,0.0847,0.253,0.467,1.29,0.163,1.74,0.207,0.285,0.279,0.285
GTGAAGC,-0.0131,0.0915,0.183,0.734,-0.0193,1.34,-0.0187,0.00411,-0.014,-0.00708
CTAGCGG,0.0161,0.135,0.533,1.53,0.0123,1.78,0.29,0.11,-0.0392,0.111
TTATCTA,0.0561,0.194,0.373,0.0335,0.0899,0.653,-0.0217,0.0196,0.258,0.252
TATACCT,-0.507,-1.13,-0.647,-3.03,0.0161,-0.116,-2.01,-0.221,0.0193,-0.0649
AAGGCCC,0.151,0.0103,0.062,0.245,0.051,-0.031,0.0973,0.0007,-0.0575,-0.017
GAATGTG,0.141,-0.0353,-0.878,-0.301,0.0358,-0.933,0.059,-0.063,0.0801,-0.162
CATTGGC,-0.0696,-0.186,-0.883,-0.612,0.0476,-1.29,0.0871,-0.193,0.0289,-0.163
ATGCATC,-0.132,-0.106,-0.112,-0.194,-0.149,-1.04,-0.219,-0.166,-0.071,-0.0525
GCCGTGA,0.18,-0.0281,0.395,0.856,-0.0697,0.526,0.236,0.0625,0.106,0.041
ACCCTCG,-0.142,-0.0794,-0.736,0.374,-0.0102,-0.596,-0.0114,-0.00601,-0.109,0.0526
TCGGCTG,0.0719,0.0619,0.12,0.776,0.0331,1.74,0.13,0.21,-0.0983,0.0839
CTGGGCG,-0.148,-0.125,-0.837,0.154,-0.034,-0.704,0.122,-0.196,-0.0151,-0.2
AATTTTC,-1.46,-0.419,-0.0433,-0.954,-0.00956,-0.785,-0.999,-0.0933,-0.00908,0.0881
ATCAGGC,0.0606,0.0639,-0.0872,-0.0126,0.027,-0.872,0.097,0.0641,-0.0133,-0.0909
TCCCTGG,0.222,0.105,0.476,0.958,-0.0899,1,0.277,0.204,-0.0155,0.071
GAACTGA,0.098,0.191,0.211,0.766,0.135,1.57,0.151,0.121,0.037,0.124
GTTACAG,-0.0384,0.151,0.0503,-0.586,-0.0376,0.188,0.0766,-0.0514,0.0686,0.13
GCCCCAT,-0.0711,0.073,0.226,0.392,-0.00179,0.616,-0.0276,-0.0929,0.0396,0.0594
GGTAGAG,0.0943,0.108,0.667,1.57,0.0675,1.27,0.335,0.0529,0.267,0.141

Sequence,uncleaved DNA left (log2) [1],uncleaved DNA left (log2) [2],uncleaved DNA left (log2) [3],uncleaved DNA left (log2) [4],uncleaved DNA left (log2) [5],uncleaved DNA left (log2) [6],uncleaved DNA left (log2) [7],uncleaved DNA left (log2) [8],uncleaved DNA left (log2) [9],uncleaved DNA left (log2) [10]
CTAACAC,0.00429,-0.0394,-0.501,-1.65,0.0565,-0.843,0.0433,-0.00702,-0.0312,-0.133
TGGGCTT,-0.0177,-0.00382,0.799,1.76,0.147,2.14,0.306,-0.0622,-0.0309,0.14
ATTTCCA,-0.139,-0.0138,-0.116,-1.4,0.00241,-0.403,-0.285,0.0294,0.00774,0.0455
CCTTTCC,-0.0872,-0.0728,-0.032,-0.523,-0.00391,-0.619,-0.114,-0.0741,-0.131,-0.099
CAACTCG,0.0485,0.0622,-0.79,-0.853,0.142,-0.931,0.136,0.116,0.0789,0.0231
ACCAGAA,-0.00353,0.0456,-0.0691,-0.0883,0.147,-0.753,0.082,-0.0149,-0.0466,0.00041
TTTGGTT,-0.00552,-0.145,0.17,-0.776,-0.0487,0.458,-0.303,-0.0475,-0.0221,-0.03
GGTACCC,0.039,0.0533,0.49,1.04,0.0312,1.71,0.0376,0.0356,0.136,0.152
ACCTTAA,-0.0764,-0.0702,-0.46,-0.538,-0.124,-0.913,-0.0644,-0.0756,-0.221,-0.097
ATCCGTG,0.0158,0.0532,-0.449,-0.433,-0.0811,-1.19,0.25,0.0276,0.0364,-0.0152
TTTCATC,-0.00583,-0.0434,0.206,-0.143,-0.0589,-0.579,-0.0747,-0.146,0.0236,0.0637
CTGTAGG,-0.0145,-0.0801,0.051,0.761,-0.0721,0.00788,0.0118,0.00479,-0.201,-0.141
ACCTATG,0.196,0.119,-0.656,-0.246,0.205,-0.901,0.229,-0.00346,0.124,-0.046
GTCCGGC,-0.0244,0.085,0.323,0.748,-0.027,1.08,0.11,0.112,0.0538,0.057
TTCTCAC,0.0433,0.0387,0.273,-0.0809,0.029,-0.12,0.0404,-0.00402,0.052,0.114
GGAATTG,0.051,0.0344,0.213,0.664,-0.00222,0.411,0.092,0.0127,-0.0116,0.0416
AAACGCG,-0.0906,-0.0154,-0.576,0.813,-0.0397,-0.194,0.11,-0.0678,0.0386,-0.124
AAATATT,-4.14,-4.44,-5.18,-3.76,-3.25,-4.08,-4.98,-4.51,-3.66,-4.87
TGAAAGG,0.102,0.15,0.485,1.25,0.171,1.26,0.271,0.132,0.073,0.176
CGTAACC,-0.176,-0.0274,-0.267,-0.861,-0.0771,-0.332,-0.707,0.0222,-0.0443,-0.031
